Reference: article PMC4336329 (PLoS ONE, 2015)
Out of some 310,000 compounds screened, about 2,200 (0.71%) showed an effect of 50% or more. Effects have a minus sign here. Some of the results follow.

Biological target: human ether-à-go-go-related gene (hERG) potassium channel (human, UniProt Q12809)
Assay: primary screen, population patch clamp on CHO cells stably expressing hERG

human ether-à-go-go-related gene (hERG) potassium channel, sequence (Q12809 whole entry, looked up): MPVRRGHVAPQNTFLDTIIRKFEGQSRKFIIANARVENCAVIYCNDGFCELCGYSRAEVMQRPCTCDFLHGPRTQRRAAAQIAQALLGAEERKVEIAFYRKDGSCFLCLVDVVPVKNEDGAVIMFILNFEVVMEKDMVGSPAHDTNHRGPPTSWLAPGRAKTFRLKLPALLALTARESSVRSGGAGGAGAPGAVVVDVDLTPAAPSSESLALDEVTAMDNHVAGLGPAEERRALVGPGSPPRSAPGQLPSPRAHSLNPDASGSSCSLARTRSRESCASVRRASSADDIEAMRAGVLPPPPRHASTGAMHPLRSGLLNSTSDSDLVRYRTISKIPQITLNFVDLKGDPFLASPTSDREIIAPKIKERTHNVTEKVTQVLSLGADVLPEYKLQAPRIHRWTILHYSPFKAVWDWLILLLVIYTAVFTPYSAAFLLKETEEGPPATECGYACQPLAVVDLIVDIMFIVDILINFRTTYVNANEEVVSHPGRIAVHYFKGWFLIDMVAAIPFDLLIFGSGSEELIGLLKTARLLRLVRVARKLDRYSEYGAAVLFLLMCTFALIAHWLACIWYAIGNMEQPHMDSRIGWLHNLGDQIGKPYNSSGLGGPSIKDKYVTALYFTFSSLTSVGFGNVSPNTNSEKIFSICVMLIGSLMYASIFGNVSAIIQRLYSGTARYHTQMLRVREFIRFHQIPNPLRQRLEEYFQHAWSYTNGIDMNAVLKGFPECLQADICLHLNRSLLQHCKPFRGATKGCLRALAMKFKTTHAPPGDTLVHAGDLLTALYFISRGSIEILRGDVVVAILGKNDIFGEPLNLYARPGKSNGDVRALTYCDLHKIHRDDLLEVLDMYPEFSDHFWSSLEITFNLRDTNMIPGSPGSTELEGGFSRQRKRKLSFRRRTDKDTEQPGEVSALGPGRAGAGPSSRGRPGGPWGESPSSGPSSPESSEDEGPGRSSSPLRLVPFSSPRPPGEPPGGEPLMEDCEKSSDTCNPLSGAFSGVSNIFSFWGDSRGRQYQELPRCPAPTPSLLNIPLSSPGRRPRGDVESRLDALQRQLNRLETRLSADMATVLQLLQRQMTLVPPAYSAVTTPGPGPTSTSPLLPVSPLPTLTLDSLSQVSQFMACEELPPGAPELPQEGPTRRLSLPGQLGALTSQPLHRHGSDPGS

In order of rising “hERG current change (%, negative = inhibition) at 1uM” value:
1. CN(C(=O)CSc1nc2ccc(Br)cc2c(=O)n1Cc1ccco1)C1CCS(=O)(=O)C1 (stereo not drawn)  -83.1%
2. Cc1ccc2nc3c(c(Nc4cccc(O)c4)c2c1)CCC3.Cl  -35.1%
3. CCOc1ccc(C(=O)NC(=S)Nc2ncccc2C)cc1[N+](=O)[O-]  -19.1%
4. CCNC(=O)c1ccc(C2SCC(=O)N2CCc2ccccc2)cc1 (stereo not drawn)  -10.8%
5. CSc1ccccc1C(=O)C1CCCN(Cc2cnn(-c3ccccc3)c2)C1 (stereo not drawn)  -10.7%
6. COc1cc(OC)c(NC(=O)CCNS(=O)(=O)c2ccc3c(c2)CC(C)N3C(C)=O)cc1Cl (stereo not drawn)  -2.01%
7. CC(=O)c1c(C)[nH]c(C(=O)OCC(=O)Nc2ccc(Cl)cc2[N+](=O)[O-])c1C  -0.254%
8. COCCCNC(=O)CCn1nc(-c2ccc(Cl)cc2)ccc1=O  1.48%
9. Cc1cc(N2CCCC2=O)cc(C)c1S(=O)(=O)NCCOc1ccc(C(C)(C)C)cc1  1.61%
10. Cc1c(Cl)cccc1NC(=O)CCN1CCCC(C)C1 (stereo not drawn)  2.32%
11. CC(C)c1nc(SCC(=O)NC(=O)NC(C)(C)C)n[nH]1  3.39%
12. COc1ccc(OC)c(/C=N/NC(=O)c2ccc(N(C)S(=O)(=O)c3ccccc3)cc2)c1  5.62%
13. COC(=O)C1=C(c2ccccc2)C[C@@H]2CC[C@H]1N2C(=O)NCCNC(C)=O  9.59%
14. C[Se]C[C@@H](N)C(=O)O.Cl  9.97%
15. Cc1cc2cc(C)c(NCCNC(=O)c3ccccc3Cl)nc2cc1C  10.1%
16. O=C(C(=O)N1CCCC1)c1c(-c2ccccc2)[nH]c2ccccc12  10.6%
17. O=C(NCCCc1ccccc1)C1CCC(CNc2c(N3CCCCC3)c(=O)c2=O)CC1 (stereo not drawn)  10.7%
18. CC(C)(C)NC(=O)C(c1ccc(F)cc1)N(Cc1cccs1)C(=O)c1ccc(CN2CCOCC2)o1 (stereo not drawn)  10.7%
19. CCCCCC(=O)NC(=S)Nc1ccc2oc(=O)ccc2c1  10.9%
20. COc1ccc(OCCCC(=O)OCC(=O)NNC(=O)c2ccc([N+](=O)[O-])cc2)cc1  11.1%
21. COc1ccccc1NC(=S)NC(=O)c1c(-c2ccccc2Cl)noc1C  13.1%
22. CCN(CC(=O)Nc1ccccc1OC)C(=O)C1CCC1  13.6%
23. O=C(CSC(=S)N1CCCC1)Nc1ncc(Cl)cc1Cl  21.2%
24. CCOC(=O)c1c(NC(=O)c2cccs2)sc2c1CCC2  24%
